These results are taken from the supplement of paper PMC3334620.

Over roughly 33,000 sequences, “E-score (-0.5 to 0.5)” has its median near -0.01; the highest 2% begin near 0.26. The list shows a part of the results.

This assay concerns the target Ste12 (UniProt P13574). In words: PBM E-score (8-mer binding enrichment) (E-score (-0.5 to 0.5)); higher = stronger / more preferred TF binding; most listed sequences are background and not binding sites. Conditions: protein concentration: 200 nM; construct: GST-DNA-binding domain. An outline of the steps: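 Full-length yeast transcription factors or their DNA-binding domains, GST-tagged and expressed with PURExpress, were applied at about 100-200 nM to universal all-10-mer Agilent arrays. These arrays had been made double-stranded by primer extension on fresh or once-stripped slides. Detection used fluorescent anti-GST, normalisation used masliner, and E-scores for ungapped eight-base words pooled with reverse complements came from the Universal PBM Analysis Suite.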
With CGAGATCG, the “PBM E-score” value is -0.166.

Take GATCCCGC: the “PBM E-score” value turned out to be 0.00584.

As to TAATTGAA, the “PBM E-score” value worked out at 0.0688.

As to ATAAATGA, the “PBM E-score” value was 0.189.

On to CGCCTTTC, for which the “PBM E-score” value is -0.105.

Regarding GGATACCC, the “PBM E-score” value was -0.124.

Take CGCGTCCA: the “PBM E-score” value was -0.194.

Consider GCCGTAAA, for which the “PBM E-score” value is -0.0729.

CAATCGTG: the “PBM E-score” value is -0.0456.

As to CCGGGGCG, the “PBM E-score” value was determined as 0.122.

Regarding CATCCACG, the “PBM E-score” value is -0.121.

For GCCATGCA, the “PBM E-score” value was -0.0325.

On to ATTCTTTA, for which the “PBM E-score” value stood at 0.13.

Take CCACAACG: the “PBM E-score” value is -0.00877.

As for TATCCGGA, the “PBM E-score” value came to 0.0347.

As to GGAGAAAA, the “PBM E-score” value amounted to 0.0218.

Take AGATGACA: the “PBM E-score” value turned out to be 0.048.

Consider TCATCTAA, for which the “PBM E-score” value is 0.0571.

Take CAGAGCTG: the “PBM E-score” value was -0.0396.

Turning to AATCAGAC, the “PBM E-score” value was 0.088.

On to CTGGGAAA, for which the “PBM E-score” value was determined as 0.0706.

As to AGTCATAA, the “PBM E-score” value is -0.00815.

In the case of CACCGTCA, the “PBM E-score” value came to 0.0887.

AGATTGCG: the “PBM E-score” value was determined as 0.0433.

Turning to GCGCGCTA, the “PBM E-score” value amounted to 0.0946.

Consider GTATCTCA, for which the “PBM E-score” value came out at 0.0995.

Take GGTCGAAC: the “PBM E-score” value was -0.105.

On to GGTAGTAA, for which the “PBM E-score” value was -0.123.

In the case of AAGGTCGA, the “PBM E-score” value turned out to be 0.0679.

Regarding ACGACCGC, the “PBM E-score” value is -0.162.

On to CAGTGGCC, for which the “PBM E-score” value is -0.161.

In the case of CCCCTTGC, the “PBM E-score” value was -0.0401.

Consider CAAATAGC, for which the “PBM E-score” value is -0.0162.

As for CTCCTGTA, the “PBM E-score” value was -0.0349.

Take CGCAAACA: the “PBM E-score” value was found to be 0.053.

Turning to CTTATAAA, the “PBM E-score” value came out at 0.223.

Regarding TCAGAAGA, the “PBM E-score” value is -0.121.

As to GTCTAGTA, the “PBM E-score” value is 0.102.

On to ATGGCTGC, for which the “PBM E-score” value is -0.0626.

In the case of ACGGAACG, the “PBM E-score” value was determined as 0.226.

Turning to ACTAGTTA, the “PBM E-score” value worked out at 0.027.

As to CCTAATAC, the “PBM E-score” value is -0.103.

On to ACCGGAGT, for which the “PBM E-score” value is -0.169.

In the case of GGCTTTAC, the “PBM E-score” value came out at 0.0754.

On to GTGTACAA, for which the “PBM E-score” value came out at 0.137.

On to AGGAGAAA, for which the “PBM E-score” value was -0.0464.

For CTCTATGA, the “PBM E-score” value was -0.164.

With AAATTGCG, the “PBM E-score” value came to 0.112.

With AATAGACA, the “PBM E-score” value is -0.137.

GACCACTA: the “PBM E-score” value was -0.0701.

With GAATAACA, the “PBM E-score” value worked out at 0.122.

For ATCAGTCA, the “PBM E-score” value was -0.164.

For ATGAACTC, the “PBM E-score” value was -0.105.

For CTCTTAGC, the “PBM E-score” value was found to be 0.0397.

Take CAGTGCCA: the “PBM E-score” value was -0.238.

Take AGGTTTGG: the “PBM E-score” value came to 0.0481.

On to ACAAGTCC, for which the “PBM E-score” value is -0.232.

Take ATCTAGAT: the “PBM E-score” value is -0.232.

As for GATTAAGA, the “PBM E-score” value stood at 0.114.

On to AATACCAA, for which the “PBM E-score” value was determined as 0.0182.

Consider GGATCAGA, for which the “PBM E-score” value is -0.0442.

For the sequence AACTAATC, the “PBM E-score” value stood at 0.094.

As to CTATGTAC, the “PBM E-score” value is -0.159.

Turning to GAGACGGC, the “PBM E-score” value was -0.0738.

Consider CGGCACCA, for which the “PBM E-score” value was 0.09.

As for GAAGCTTA, the “PBM E-score” value is -0.072.

In the case of AACTGACA, the “PBM E-score” value is 0.132.

For the sequence ATTACCAC, the “PBM E-score” value was determined as 0.0728.

In the case of AGGAAAAT, the “PBM E-score” value amounted to 0.177.

In the case of AATATATC, the “PBM E-score” value was determined as 0.0719.

As for GAACGGTC, the “PBM E-score” value was -0.0586.

For the sequence TCTTTTCA, the “PBM E-score” value was found to be 0.106.

In the case of ACGCTCCC, the “PBM E-score” value was 0.0475.

In the case of AAGCCATA, the “PBM E-score” value was -0.124.

On to AATGCCTG, for which the “PBM E-score” value was -0.0458.

For AGCGGTCC, the “PBM E-score” value was -0.0901.

Take TACGTGAA: the “PBM E-score” value was found to be 0.0978.

On to CTAAGGGA, for which the “PBM E-score” value was -0.0343.

Turning to CTACTCAG, the “PBM E-score” value was -0.125.

Consider GCGGCCTA, for which the “PBM E-score” value was -0.0793.

Consider AAAATTAA, for which the “PBM E-score” value was determined as 0.134.

For CTTTCACA, the “PBM E-score” value came out at 0.0992.

Consider AACAAGAG, for which the “PBM E-score” value came out at 0.108.

As for CATGCCAC, the “PBM E-score” value is -0.0903.

Regarding GCCCTTAA, the “PBM E-score” value was -0.00306.

As to GAAGGGTC, the “PBM E-score” value is -0.287.

Turning to GGGAGCCA, the “PBM E-score” value was -0.0911.

On to AGATAGTA, for which the “PBM E-score” value was -0.0431.

With AGCGGCGC, the “PBM E-score” value is -0.133.

For CGACATCA, the “PBM E-score” value is -0.0385.

In the case of AAAGCCGG, the “PBM E-score” value stood at 0.122.

As for AGACATAT, the “PBM E-score” value was determined as 0.0461.

Take CACTCGTC: the “PBM E-score” value is -0.00321.

Regarding GAACTACA, the “PBM E-score” value was -0.146.

With GTGATCCA, the “PBM E-score” value was -0.167.

As for TATCGACA, the “PBM E-score” value turned out to be 0.051.

Take ACAAGTCT: the “PBM E-score” value amounted to 0.0297.

Take CCCGACGG: the “PBM E-score” value was -0.134.

For ATAAGTTC, the “PBM E-score” value amounted to 0.0815.

As for TATCGCCA, the “PBM E-score” value was -0.111.

Consider CATCACAA, for which the “PBM E-score” value is 0.0823.

With CGGAGTTC, the “PBM E-score” value was found to be 0.0765.

AATTGTGA: the “PBM E-score” value is 0.0664.

For AGTCCCAA, the “PBM E-score” value turned out to be 0.0686.

As to ATGAAACC, the “PBM E-score” value is 0.457.

As to CGAGGTTC, the “PBM E-score” value was -0.0308.

As for AGGTTACC, the “PBM E-score” value was 0.0494.

Consider CGATTCCA, for which the “PBM E-score” value came to 0.0118.

As to AACATTCC, the “PBM E-score” value was -0.0933.

For the sequence AACCTTTG, the “PBM E-score” value was -0.155.
